Experimental data as given in the antibiotic and cytotoxicity screens of Wong et al. (2023).
The list shows a part of the results.

Tests used:
HSkMC = human skeletal muscle cells; experiment: cytotoxicity call (relative viability < 0.9); details: 10 µM
HepG2 = experiment: cytotoxicity call (relative viability < 0.9); details: 10 µM
S. aureus RN4220 = experiment: growth inhibition call (relative growth <= 0.2); details: 50 µM

SMILES	cytotoxicity call (HSkMC)	cytotoxicity call (HepG2)	growth inhibition call (S. aureus RN4220)
COc1cc(C)nc2nc(S(C)(=O)=O)nn12	inactive	inactive	inactive
CN1CCN(C(=O)C[C@H]2CC[C@H]3[C@H](COc4ccc(NC(=O)c5ccc(F)c(F)c5)cc4C(=O)N3C)O2)CC1	inactive	inactive	inactive
COc1ccc(CN(C)C[C@H]2OCCCC[C@@H](C)Oc3ccc(NC(=O)NC4CCCCC4)cc3C(=O)N([C@H](C)CO)C[C@@H]2C)cc1	inactive	inactive	inactive
C[C@@H]1CN([C@@H](C)CO)C(=O)c2cc(NC(=O)Cc3cn(C)c4ccccc34)ccc2O[C@@H]1CN(C)Cc1ccc(C(F)(F)F)cc1	inactive	inactive	inactive
CCOC(=O)CC1=NC(=O)CS1	inactive	inactive	inactive
O=C(N[C@H](c1ccc(F)cc1)c1ccc2ccccc2n1)C1CCN(Cc2cccc(C(F)(F)F)c2)CC1	active	active	inactive
Cc1noc(C)c1S(=O)(=O)N(C)C[C@H]1OCCCC[C@H](C)Oc2ccc(NC(=O)Nc3ccccc3)cc2C(=O)N([C@@H](C)CO)C[C@@H]1C	inactive	inactive	inactive
Cn1c(=O)n2n(c1=O)[C@H](C1CC1)C=C1CN3[C@@H]([C@H](Cc4ccccc4)OC(=O)[C@@H]3Cc3ccc(N=[N+]=[N-])cc3)[C@@H]12	inactive	inactive	inactive
CCS(=O)(=O)Nc1ccc2c(c1)C(=O)N(C)[C@H]1CC[C@H](CC(=O)NCc3ccccc3F)O[C@H]1CO2	inactive	inactive	inactive
N=C(N)N1CCc2ccccc2C1.O=S(=O)(O)O	inactive	inactive	inactive
COc1ccc(-c2ccc3c(c2)O[C@@H](CN(C)CC2CCOCC2)[C@@H](C)CN([C@@H](C)CO)S3(=O)=O)cc1	inactive	inactive	inactive
C[C@H](O)C#Cc1ccc2c(c1)O[C@H](CN(C)C(=O)Cc1ccccn1)[C@H](C)CN([C@@H](C)CO)S2(=O)=O	inactive	inactive	inactive
C[C@@H]1CCCCO[C@H](CN(C)C(=O)Nc2cccc3ccccc23)[C@H](C)CN([C@@H](C)CO)C(=O)c2cc(NC(=O)Nc3ccccc3)ccc2O1	inactive	inactive	inactive
Cc1ccc(S(=O)(=O)N(c2cccc(-n3cc(CCC(=O)NO)nn3)c2)S(=O)(=O)c2ccc(C)cc2)cc1	active	active	active
COc1cccc(NC(=O)N[C@@H]2C=C[C@H](CC(=O)N3CCOCC3)O[C@@H]2CO)c1	inactive	inactive	inactive
C[C@@H]1CN([C@@H](C)CO)C(=O)c2cc(NC(=O)C3CC3)ccc2O[C@@H]1CN(C)S(=O)(=O)c1cccs1	inactive	inactive	inactive
C[C@H](CO)N1C[C@H](C)[C@@H](CN(C)CC2CCCCC2)OCCCC[C@H](C)Oc2ccc(NC(=O)NC3CCCCC3)cc2C1=O	inactive	inactive	inactive
O=C1O[C@H](c2ccccc2)[C@H](c2ccccc2)N2[C@H]1[C@@H](C(=O)N1CCCCCCC1)[C@]1(C(=O)Nc3ccccc31)[C@H]2c1ccc(O)cc1	active	inactive	inactive
Cc1ccc(S(=O)(=O)Nc2ccc3c(c2)C(=O)N([C@H](C)CO)C[C@@H](C)[C@H](CN(C)Cc2ccc(Cl)c(Cl)c2)O3)cc1	active	inactive	inactive
COCCNC(=O)C[C@@H]1CC[C@H]2[C@@H](COC[C@H](O)CN2C(=O)Nc2ccc3c(c2)OCO3)O1	inactive	inactive	inactive
C[C@@H]1CCCCO[C@H](CN(C)S(C)(=O)=O)[C@@H](C)CN([C@@H](C)CO)C(=O)c2cc(NS(=O)(=O)c3cn(C)cn3)ccc2O1	inactive	inactive	inactive
CCCN(C)C[C@@H]1OCCCC[C@H](C)Oc2ccc(NC(=O)Cc3ccccc3)cc2C(=O)N([C@H](C)CO)C[C@@H]1C	inactive	inactive	inactive
Cc1noc(C)c1S(=O)(=O)Nc1ccc2c(c1)C(=O)N([C@H](C)CO)C[C@H](C)[C@H](CN(C)Cc1ccncc1)O2	inactive	inactive	inactive
Cc1ccc(S(=O)(=O)Nc2ccc3c(c2)C(=O)N([C@H](C)CO)C[C@H](C)[C@@H](CN(C)C(=O)CCC(F)(F)F)OCCCC[C@@H](C)O3)cc1	inactive	inactive	inactive
C[C@H]1CN([C@@H](C)CO)C(=O)c2cccc(NC(=O)Nc3ccc(C(F)(F)F)cc3)c2O[C@H]1CN(C)C(=O)Nc1ccc2c(c1)OCO2	inactive	inactive	active
C[C@H](CO)N1C[C@H](C)[C@H](CN(C)Cc2ccc(Oc3ccccc3)cc2)Oc2c(NC(=O)Nc3cccc4ccccc34)cccc2C1=O	inactive	inactive	inactive
C[C@@H]1CCCCO[C@H](CN(C)Cc2ccccc2)[C@H](C)CN([C@@H](C)CO)C(=O)c2cc(NC(=O)c3ccccc3)ccc2O1	inactive	inactive	inactive

SMILES	cytotoxicity call (HSkMC)	cytotoxicity call (HepG2)	growth inhibition call (S. aureus RN4220)
CC1CC2C3CC(F)C4=CC(=O)C=CC4(C)C3(F)C(O)CC2(C)C1(O)C(=O)CO (configuration not stated)	inactive	inactive	inactive
C[C@@H]1CCCCO[C@@H](CN(C)S(=O)(=O)c2cccs2)[C@@H](C)CN([C@@H](C)CO)C(=O)c2cc(NC(=O)Cc3ccccc3)ccc2O1	inactive	inactive	inactive
CCCCCCCCCCCCCCSCC(=O)O	inactive	inactive	inactive
C[C@H]1CN([C@@H](C)CO)C(=O)c2cc(NC(=O)Cn3cnnn3)ccc2O[C@H]1CN(C)C(=O)Nc1ccc2c(c1)OCO2	inactive	inactive	inactive
COc1ccc(CNC(=O)C[C@H]2C[C@@H]3c4cc(NC(=O)NC5CCCC5)ccc4O[C@@H]3[C@@H](CO)O2)cc1	inactive	inactive	inactive
C[C@H](CO)N1C[C@H](C)[C@@H](CN(C)C(=O)c2ccncc2)Oc2ncc(C#CC3CCCCC3)cc2C1=O	inactive	inactive	inactive
C[C@H](CO)N1C[C@H](C)[C@@H](CN(C)Cc2ccc(C(=O)O)cc2)OCCCC[C@H](C)Oc2ccc(NS(=O)(=O)c3cccs3)cc2C1=O	inactive	inactive	inactive
C[C@@H]1CN([C@@H](C)CO)C(=O)c2cccc(NC(=O)C3CCCCC3)c2O[C@H]1CN(C)Cc1ccc(C(F)(F)F)cc1	inactive	inactive	inactive
O=c1ccn([C@H]2C[C@H](O)[C@@H](CO)O2)c(=O)[nH]1	inactive	inactive	inactive
COCC(=O)N[C@H]1C=C[C@@H](CC(=O)N2CCCCC2)O[C@H]1CO	inactive	inactive	inactive
C[C@H](CO)N1C[C@H](C)[C@@H](CN(C)CC2CCCCC2)OCCCC[C@H](C)Oc2ccc(NS(=O)(=O)c3ccc(F)cc3)cc2C1=O	inactive	inactive	inactive
C[C@@H]1CN([C@@H](C)CO)C(=O)Cc2cc(NC(=O)CCC(F)(F)F)ccc2O[C@H]1CN(C)S(=O)(=O)c1ccccc1	inactive	inactive	inactive
C[C@@H]1CCCCO[C@H](CN(C)C(=O)Nc2cccc3ccccc23)[C@H](C)CN([C@H](C)CO)C(=O)c2cc(NS(=O)(=O)c3ccc(F)cc3)ccc2O1	inactive	active	inactive
C[C@@H]1CN([C@H](C)CO)C(=O)c2cc(NC(=O)CCCCCC(=O)Nc3ccccc3N)ccc2O[C@H]1CN(C)Cc1ccc(-c2ccccc2)cc1	active	active	inactive
CCCN(C)C[C@H]1OCCCC[C@H](C)Oc2ccc(NC(=O)c3ccccc3)cc2C(=O)N([C@@H](C)CO)C[C@H]1C	inactive	inactive	inactive
C[C@@H]1CN([C@H](C)CO)S(=O)(=O)c2ccc(C#Cc3cccnc3)cc2O[C@@H]1CN(C)CC1CCOCC1	inactive	inactive	inactive
C[C@@H]1CCCCO[C@@H](CN(C)C(=O)c2ccccc2)[C@@H](C)CN([C@H](C)CO)C(=O)c2cc(NC(=O)Nc3ccc(F)cc3)ccc2O1	inactive	inactive	inactive
COc1cc(OC)c(C(=O)CCCN2CCCC2)c(OC)c1.Cl	inactive	inactive	inactive
Cc1ccc(N2C(=O)c3ccccc3[C@@H](C(=O)NCCN3CCOCC3)[C@@H]2c2ccc(CO)cc2)nc1	inactive	inactive	inactive
C[C@H](O)C#Cc1ccc2c(c1)O[C@@H](CN(C)C(=O)c1ccccc1)[C@H](C)CN([C@H](C)CO)S2(=O)=O	inactive	inactive	inactive
CCOCCn1c(N2CCCN(C)CC2)nc2ccccc21.O=C(O)C=CC(=O)O.O=C(O)C=CC(=O)O	inactive	inactive	inactive
CO[C@H]1CN(C)C(=O)c2ccc(NS(=O)(=O)c3ccccc3)cc2OC[C@@H](C)N(C(=O)NC(C)C)C[C@@H]1C	inactive	inactive	inactive
COc1ccc(NC(=O)N(C)C[C@@H]2OCCCC[C@H](C)Oc3ccc(NS(=O)(=O)c4ccccc4)cc3C(=O)N([C@H](C)CO)C[C@@H]2C)cc1	inactive	inactive	inactive
N[C@@H](C(=O)O)c1ccc(O)c(C(=O)O)c1	inactive	inactive	inactive
Cc1noc(C)c1S(=O)(=O)Nc1cccc2c1O[C@@H](CN(C)Cc1ccccc1)[C@@H](C)CN([C@H](C)CO)C2=O	inactive	inactive	inactive
C[C@@H]1CN([C@@H](C)CO)S(=O)(=O)c2ccc(-c3cccnc3)cc2O[C@@H]1CN(C)C(=O)NC1CCCC1	inactive	inactive	inactive
C[C@@H]1CN([C@@H](C)CO)C(=O)Cc2cc(NC(=O)Nc3ccc(F)cc3)ccc2O[C@H]1CN(C)Cc1ccc(Oc2ccccc2)cc1	inactive	active	inactive
